Reference: PubChem BioAssay (NCI)
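Step 1: Grow cells in 96-well plates. Step 2: Expose to compound for 48 hours at 5 concentrations. Step 3: Interpolate endpoints linearly; if unreached, use highest concentration. GI50: concentration for 50% inhibition of growth. TGI: total growth inhibition.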

System: NCI-H322M lung
Assay: NCI tumour cell line growth inhibition, 48 h

Row | Compound | GI50 [µM] | TGI [µM]
1 | CN1CCN(Cc2ccc(NC(=O)c3cncc(C#Cc4cnc5ccc(O[C@@H]6CCOC6)nn45)c3)cc2C(F)(F)F)CC1 | 0.214 | 0.915
2 | NC(=O)c1c(NC(=O)c2ccc(C(F)(F)F)cc2)sc2c1CCC(=O)C2 | 7.97 | > 78.4
